Results taken from the supplement of paper PMC12355420.
Counter-ions that a name gives are not always drawn. The list shows a part of the results. Single values are uncertain, as repeats are few or missing.

Tested on: HeLa VPS33A reporter cells
Test: relative cell viability (CellMask signal) vs DMSO (fraction of DMSO); HeLa model of a glycosaminoglycan (GAG) storage disease; KI is knock-in and KO knock-out; SDC1 is syndecan 1; higher = less cytotoxic
Details: 50 µM; 24 h
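Note: primary screen of an FDA-approved drug library in HeLa reporter cells in 96-well format, CellMask signal normalized to DMSO-treated wells set as 1, under 0.5 deemed highly cytotoxic.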

SMILES	relative cell viability
CCOC(=O)c1ncn2c1CN(C)C(=O)c1cc(F)ccc1-2 [Flumazenil]	1.21
OC[C@@]1(O)OC[C@@H](O)[C@@H](O)[C@@H]1O [Fructose]	0.914
CC(C(=O)O)c1ccc(C(=O)c2cccs2)cc1 (stereo not given) [Suprofen]	0.962
CCC/C=C1\OC(=O)C2=C1CCC=C2 [Z-Ligustilide]	0.644
C[C@H](NCc1ccc(OCc2cccc(F)c2)cc1)C(N)=O [Safinamide Mesylate]	0.96
Nc1ncnc2c1ncn2[C@@H]1O[C@H](COP(=O)(O)OP(=O)(O)OP(=O)(O)O)[C@@H](O)[C@H]1O [Adenosine 5-triphosphate]	1.18
O=C(O)c1cc(O)c2c(c1)[C@@H]([C@H]1c3cc(C(=O)O)cc(O)c3C(=O)c3c(O[C@@H]4O[C@H](CO)[C@@H](O)[C@H](O)[C@H]4O)cccc31)c1cccc(O[C@@H]3O[C@H](CO)[C@@H](O)[C@H](O)[C@H]3O)c1C2=O [Sennoside B]	0.869
N=C(N)NCCCC[C@@H]1NC(=O)CCSSC[C@@H](C(N)=O)NC(=O)[C@@H]2CCCN2C(=O)[C@H](Cc2c[nH]c3ccccc23)NC(=O)[C@H](CC(=O)O)NC(=O)CNC1=O [Eptifibatide]	1.05
C[N+]1(C)CCC(OC(=O)C(O)(c2ccccc2)C2CCCC2)C1 (stereo not given) [Glycopyrrolate]	1.27
O=c1[nH]cc(F)c(=O)[nH]1 [Fluorouracil (Adrucil)]	1.19
CCOc1nc2cccc(C(=O)O)c2n1Cc1ccc(-c2ccccc2-c2noc(=O)[nH]2)cc1 [Azilsartan]	1.01
Cc1c(NC(=O)c2cccnc2)c(=O)n(-c2ccccc2)n1C [Nifenazone]	1.11
NCCCS(=O)(=O)O [Tramiprosate]	1.04
CC(C)[C@H](O)C(=O)N[C@@H](C)C(=O)N[C@@H]1C(=O)N(C)CCc2ccccc21	1.04
Cc1c(F)cc(C(=O)NC2CC2)cc1-c1ccc(C(=O)NCC(C)(C)C)cn1 [Losmapimod]	0.987
O=C1NC(=O)[C@@H](c2cn3c4c(cccc24)CCC3)[C@@H]1c1c[nH]c2ccccc12 [Tivantinib (ARQ 197)]	0.93
CS(=O)(=O)c1ccc(C(=O)Nc2ccc(Cl)c(-c3ccccn3)c2)c(Cl)c1 [GDC-0449 (Vismodegib)]	1.1
CC#CC(=O)N1CCC[C@H]1c1nc(-c2ccc(C(=O)Nc3ccccn3)cc2)c2c(N)nccn12	1
CC#C[C@]1(O)CC[C@H]2[C@@H]3CCC4=CC(=O)CCC4=C3[C@@H](c3ccc(N(C)C)cc3)C[C@@]21C [Mifepristone]	1.23
Nc1nc2c(ncn2[C@H]2C[C@H](O)[C@@H](CO)O2)c(=O)[nH]1 [2'-Deoxyguanosine]	0.982

SMILES	relative cell viability
Oc1cccc(O)c1 [Resorcinol]	0.945
C/C=C1\[C@H]2C=C(C)C[C@]1(N)c1ccc(=O)[nH]c1C2 [(-)-Huperzine A]	1.14
COc1c(C)c2c(c(O)c1C/C=C(\C)CCC(=O)OCCN1CCOCC1)C(=O)OC2 [Mycophenolate Mofetil]	0.971
COc1cc2c(cc1OC)[C@@H]1Cc3ccc(OC)c(OC)c3CN1CC2 [Rotundine]	1.04
Cc1ccc(-n2nc(C(C)(C)C)cc2NC(=O)NCc2cc(F)ccc2Oc2ccc3c(cnn3CCO)c2)cc1 [Pexmetinib (ARRY-614)]	1.09
NC(=O)c1cccnc1 [Nicotinamide]	1.06
CC(C)c1nc(CN(C)C(=O)N[C@@H](CCN2CCOCC2)C(=O)N[C@H](CC[C@H](Cc2ccccc2)NC(=O)OCc2cncs2)Cc2ccccc2)cs1 [Cobicistat (GS-9350)]	0.719
CC(C)(O)CNc1nc(Nc2ccnc(C(F)(F)F)c2)nc(-c2cccc(C(F)(F)F)n2)n1 [AG-221 (Enasidenib)]	1.15
C[C@H](CCC(=O)NCCS(=O)(=O)O)[C@H]1CC[C@H]2[C@@H]3[C@@H](O)C[C@@H]4C[C@H](O)CC[C@]4(C)[C@H]3CC[C@]12C [Sodium Tauroursodeoxycholate (TUDC)]	1.06
CC(C)/N=c1\cc2n(-c3ccc(Cl)cc3)c3ccccc3nc-2cc1Nc1ccc(Cl)cc1 [Clofazimine]	0.997
CCN(CCO)CCCC(C)Nc1ccnc2cc(Cl)ccc12 (stereo not given) [Hydroxychloroquine Sulfate]	1.08
Nc1nc(CC(=O)Nc2ccc(CCNC[C@H](O)c3ccccc3)cc2)cs1 [Mirabegron (YM178)]	1.09
Cc1nc2n(c(=O)c1CCN1CCC(c3noc4cc(F)ccc34)CC1)CCCC2 [Risperidone]	1.32
NC(=O)NO [Hydroxyurea]	1
CC(C)(C)C(O)/C=C/c1ccc2c(c1)OCO2 (stereo not given) [Stiripentol]	0.96
CNC(=O)c1ccc(N2C(=S)N(c3ccc(C#N)c(C(F)(F)F)c3)C(=O)C2(C)C)cc1F [MDV3100 (Enzalutamide)]	1.2
COC(=O)c1ccc(O)cc1 [Methylparaben]	0.994
O=P(O)(O)C(O)(Cn1ccnc1)P(=O)(O)O [Zoledronic Acid]	0.814
c1cn2cc(-c3ccc4cn[nH]c4c3)nc(Nc3ccc(N4CCOCC4)cc3)c2n1	1.05
COC(=O)N[C@H](C(=O)N[C@@H](Cc1ccccc1)[C@@H](O)CN(Cc1ccc(-c2ccccn2)cc1)NC(=O)[C@@H](NC(=O)OC)C(C)(C)C)C(C)(C)C [Atazanavir]	1.26
